Test results published in the supplement of paper PMC10126150.
Sequences with one replicate were seen in a single cluster, so their values are uncertain.

System: ATP
Experiment: switch fluorescence ratio, 500 uM ATP over buffer (Cy3 cluster intensity, sum of 5 cycles each) (fold (ratio)); higher = stronger signal-on switching upon ATP binding; sequences stand for … in TCGTCGGCAGCGTCAGATGTGTATAAGAGACAGTTTTTTTTTTTTTTTTTTTTTTTTT…TC
Details: aptamer strand: ATP DNA aptamer (quencher-CACCTGGGGGAGTATTGCGGAGGAAGG + anchor), 100 nM annealed; ATP concentration: 500 uM; one replicate
In short: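 Five buffer/ATP imaging cycles were run on Cy3-labelled switching-strand clusters on a modified Illumina MiSeq flow-cell, with NaOH stripping and re-annealing between cycles. In each cycle, clusters annealed to 100 nM quencher-labelled ATP aptamer were imaged in selection buffer, then after 15 min with 500 uM ATP at 22 °C. Per cluster, the fluorescence ratio is summed target-cycle over summed buffer-cycle Cy3 intensity, averaged per switch-domain sequence. Only clusters within 100-1000 RFU were kept.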
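Also: ATP exposure 15 min at 22 °C before imaging.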

Sequence	switch fluorescence ratio
GTTCTATGAG	1.01
AAGACGGGCC	0.993
GATTAGTCTT	0.988
GATTTTTGCT	0.938
TTTGTCCTGT	1.01
TATGAGCAAT	3.09
CATCTCACAT	1.01
ACGCTTTCCC	1.23
CTGTCATCCG	0.992
ACCAGGGTCT	1.05
CGGAAACCTC	1.04
CTGGAACATC	1.06
AAAACCTTAT	1.21
GCCGTTATTG	0.936
AGAAAACCGG	1.03
GGCCAAGCTA	0.967
ACAAAAAGTG	1.01
TTAGGTAGCG	0.964
GCCAGCGTTA	1.08
AAGGGGTAAG	0.983
TAGTATGTG	0.952
TTCAACACG	1.27
TTCCCATCA	1.01
GCAAGGGGCC	0.999
AAAGTATTTA	1.06
ACACAACAT	1.19

Sequence	switch fluorescence ratio
CGATTATGTG	0.973
ACTGCGGTCC	1.06
ATTCCAAAGG	0.978
AGACCACCTA	1.16
TCAGGGTGCG	0.998
AACTTAGTA	0.992
GATTCGGTCG	0.956
TGTTCCAGGT	1.09
CCACAACACA	1.27
TAATGCTCAC	1.06
TTGGAAAGTA	0.975
GGGGCACCAC	1.01
GATAAGAATG	1.01
CCGGGTATAG	1.55
ACTTTCCCTT	1.25
GTCTTCTGCT	1.02
TCTTACAGCG	0.963
AAAAACTCAC	1.07
ATGGCAACCT	1.51
GGGCTTCGTG	0.993
GTTTATAAAA	0.979
CTTACTATTT	0.974
GCAGACTTCT	1.01
GCGTTTGTCT	1.02
ATAGGTGGAC	1.02
CCGGGGATCT	1.08

Sequence	switch fluorescence ratio
TCTGCGCTGA	1.06
GGGCTAGGGC	1.03
TACAACGGCC	1.02
TTTCTTCGAC	1.08
AAAGTGTCTA	0.978
GGGATTAGTG	1
CTAACTTCGT	0.994
CGCCTAGTTG	1.03
CGATGCTGCT	0.978
TATCTGCTTT	1.01
AAGAATGTGG	0.964
TTTCAACCCG	0.961
CGCACACGCT	1.1
TCACCGGGTA	1.58
GGGCTCGCAT	1.05
AAACATGTTG	0.972
TCACCCGTTC	1.05
TTTGCGTCCA	1.01
AAGCTACACT	1.06
AGACCGAACG	1.12
CCTTCATGCA	1.99
TCAAGCTCCA	1.2
TGACGGACTG	1.03
GGTGACTCCA	0.988
CCTCCGCCGT	1.4
AACCTACTTG	1.11

Sequence	switch fluorescence ratio
GATATCGCTT	1.05
TTGGACGATA	1.1
GTTTGAGGCA	1
TTTTCTGGG	1
GTTCAAAACG	1.02
TCGGTTAGAA	0.992
CCGGCGCCAT	2.92
AATATTAGAG	0.956
TTTGTGTAAC	0.989
GGCGCACCCC	1
ATCGAAATGC	2.66
AAGGGGTA	1.06
CACCGCGTTT	1.47
CGTCAGAC	1.2
TTTAATCTTA	1.02
TCGGTACGCC	0.978
CTCAGACCGG	0.997
GTGCACAAAG	1.02
TAGTTTCCGA	1.03
CCCGGTGAGC	1.07
CTATAGTCGG	1
ATAACGCTGT	1
CTTTAAGATA	0.981
TTAAATGCA	0.976
CGCCATTCGA	1.05
TGGTTTCGCC	0.968

Sequence	switch fluorescence ratio
TTACGTAGTG	0.951
ACTTGACAAT	1.14
GTCCCTACCT	1.23
TACCGCAGGA	2.1
TTATAGGA	1.03
ATTAAGTCT	0.954
AAATCCATCC	1.47
GACTTGGTAA	0.99
CTAAAGCCCG	0.964
TATTGCTAAA	1.01
GACAAGGGAT	0.995
ATGTTTCGTT	1.01
TAGTCCCAGT	1.07
CGTCCGTACG	1.28
CATCTTGATG	0.977
TTCCTGAGGT	1.08
AATAGCGCAA	3.2
TACTGATGTC	1.08
GTTTCTTCGG	0.953
TCGATGCCTG	1.07
TTATCGGAAA	0.991
AAAAGTCGAG	0.988
TTGTCAGGCA	1.04
CTTGTGACCT	1.22
AAGGAGAAAT	1.03
CAATGCATTG	0.981

Sequence	switch fluorescence ratio
AAACTAAGC	0.964
GTTGCGGGGC	1.02
CAAGTGTAGA	1.01
GTAGATCGCG	1.03
CGCAGTCGTT	1.07
CTTGAAGGAG	1.05
GATAAGGGGG	0.957
ATGTCCGATA	0.973
GATGCGGACG	1.03
ATAGTAGTT	0.965
GGGGAATCCC	1.01
AATATTTCAC	1.45
GACTCTGGCG	1.05
CGCTTGGTGG	0.986
CATGGTCGAT	1.01
TTGGCTACTA	0.97
AACAAGCCAT	1.03
AGTGCGGTCT	1.05
CTCGCACGCG	1.04
TCTAGATGT	1.01
TTTCAACTTC	1.01
GTTGTTGCGA	1.01
CGTAACGTTC	1.01
GATGAGGGAG	0.986
CCCGAGCGAA	2.46
CGTTTAGTTT	1

Sequence	switch fluorescence ratio
CGCTCCATGT	1.08
TTTCTTAAAT	1.01
GCGTGGCTTA	1.04
CTCAGCGGTT	1.32
CTCCTCCATG	2.35
ACCGTGGGCG	1.03
TTGAGTAGAT	0.984
ATGAGCGAAC	1.06
GGGGTTTATT	1
TCTTTACACC	1.15
GTGGTGTCG	1.03
AAACGATGGA	0.979
CGTGCTTGA	1.08
TTTGTCTCGC	0.991
TTCACAAAAA	0.997
TGCAGCGGCA	1
CCCCTGACC	1.15
GTGAATACTA	0.999
AGGGAGTGG	0.967
GATTCAGTGT	0.972
GCCCAACGCA	1.27
GCGTTTTGCT	1.02
TTATTGACCG	1.15
GCAATGCCCT	1.38
ATTTTAGGT	0.96
GTCGATCATG	0.969

Sequence	switch fluorescence ratio
GGCCGGCGTA	0.99
CGGTAGCAGC	1.93
TAGCTCATGT	0.956
CTAGTACCGC	1.05
AGGCAGAGAT	0.979
TTCTGCGT	1
GGTATATTGA	1
GATTCGTAGG	0.986
ATCATGTAAG	1.02
CGTAGGCTTT	0.981
TCGTTGCATC	1.03
CTAATTCTGG	0.973
CAGTGAAGTT	1.01
CTTAAAATTT	1
ATTTGGGGCA	1.06
AGATACGTCT	1.01
ATCCCAGTTG	1.78
TGCGCCTCA	0.951
AATAACGCCG	1.03
